Assays:
[1] = target: His-tagged SARS-CoV-2 RBD (SARS-CoV-2)
[2] = target: SARS-CoV-2 spike (S) glycoprotein on live SARS-CoV-2 virus (SARS-CoV-2); assay: cell-based or functional assay

Binder | Kd [1] [nM] | in vitro virus neutralization EC50 [2] [µg/mL]
huACE2-Fc fusion construct S2589 (ACE2-GS2-hFc3) (Fc fusion) not shown | 0.7 | 
huACE2-Fc fusion construct S2585 (ACE2-GS2-hFc1) (Fc fusion) not shown | 0.8 | 0.6
huACE2-Fc fusion construct S2583 (ACE2-hFc1) (Fc fusion) not shown | 3.2 | 0.9

From patent US20220002699A1 (PLANET BIOTECHNOLOGY, published 2022)
